± gives the standard deviation of the averaged measurements. Over roughly 4,100 sequences, “arbitrary fluorescence units” has its median near 780; the highest 2% begin near 22,000. This is one part of the list.
Target: T1, ETS1 (UniProt P14921)
T1 sequence: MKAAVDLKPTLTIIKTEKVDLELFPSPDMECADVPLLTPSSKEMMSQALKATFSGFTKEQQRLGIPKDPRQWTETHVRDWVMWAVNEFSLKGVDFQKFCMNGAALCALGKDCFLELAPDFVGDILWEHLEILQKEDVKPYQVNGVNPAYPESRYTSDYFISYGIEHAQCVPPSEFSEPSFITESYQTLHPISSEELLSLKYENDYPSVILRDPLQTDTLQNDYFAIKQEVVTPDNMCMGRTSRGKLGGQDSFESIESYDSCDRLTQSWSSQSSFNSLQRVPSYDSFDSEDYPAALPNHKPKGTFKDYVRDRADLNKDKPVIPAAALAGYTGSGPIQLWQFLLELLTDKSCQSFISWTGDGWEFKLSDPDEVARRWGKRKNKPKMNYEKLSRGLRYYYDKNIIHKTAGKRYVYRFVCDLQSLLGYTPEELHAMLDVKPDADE
Experiment: ETS1 binding intensity (PBM fluorescence), ETS1 alone (arbitrary fluorescence units); higher = stronger binding
Settings: ETS1 concentration 1 nM; RUNX1 concentration 0 nM
Description: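 gcPBM on 36-bp genomic-derived probes (partner site mutated) containing one ETS1 site and no RUNX1 site. Recombinant human ETS1 (1 nM) was incubated alone or with RUNX1 (25 nM) and detected by anti-ETS1 antibody fluorescence. Values are medians over 4 replicate spots (not normalised). The probes sit in constant array flanks that are not printed.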

| Sequence | ETS1 binding intensity |
| --- | --- |
| AACTTCCTCATTTCTCCAACTGTCCAGCCAGAGAAA | 13300 |
| TCCCACATCCTGTGCTCGTGCAGTGCTTAGGCTCAA | 18200 |
| CTGCGCTTCCGCTTCACCCGGAGTACAGGGGTCCTG | 11400 |
| CCTGTCCGGAAGTCCTGAGAGGGAATCGCCCGTAAA | 6580 |
| CAAGGGAATAGCCGCTGACGGAAGCAGACAGCCTGT | 509 |
| GCGCAGCCCGTTTCCCCTCTTGGCGGCTGCGAACTT | 1080 |
| AAGTGCTTGCATATAGGGCGAATCGGCTTCCTGCTA | 463 |
| GCCTCCTCCCATTTCCTCCATGTGCTCAATCCAGTT | 2520 |
| GACGGAAGCCGAGAGGCTCCCGTAAGCGCTCTTGAG | 382 |
| AGGCTCCGGCGCAGTGCCAGCCGGAACTTGGGGTTC | 536 |
| CAGCAGTAAGCTACAGAGGAAAACAGGAAGTGATAC | 3030 |
| TGCCATCTTGAGGTGGCGCCGGGTTTCCGCTCAGGC | 872 |
| TCTTCGGGACTAAGAGGCGGGGAAAGGAAGCGAAAG | 461 |
| CGGAGCGCGCTGGGGTGGGTGCGGAAGGGGGCGAGG | 590 |
| CCACCCTCCGTCCGGCCGCGACAGCGAGGAGGAAGA | 1180 |
| AGGCGCTGAGGGGATGGTGAGGACGCTATCCGGGGC | 336 |
| GACCGAGAGGAAGCAGCAAGGATCCTGCTGTTCCAG | 931 |
| TCCCTGGAGCGGATTTAGGGGGCCGCTTCCTTGGCC | 385 ± 49 |
| CTCCCGCCTTCCTCCCGGTTTACGGCCATTGACCGT | 798 |
| GCGAAAGGAACTTCCTTTGCATGCGCTCAGAGTGCT | 3940 |
| ACTTACAAAGGAAGTGACAGAACGACAGAAAAGACC | 2840 |
| TTTGTTGGGGTTGGTGAGTCACTTCCTCCCTCTCGC | 1160 |
| AATCCAACACTTCCTCCTCCACCTCAGAAAGGCAAC | 3860 |
| TGCCGTTTCCGGGTCACCCAGGCAGCTTTTGGCGGC | 13900 |
| ACAGGAAATGACTTAGGGAAAGTCCCAACGGCAATC | 1770 |
| GGGGCTCCGCAGGAAGTAGGGCTCCCAGAACTTTGC | 2040 |
| GTGTGTGCGTGGGGAGAGCTGCAGCCACAGGAAACG | 597 |

| Sequence | ETS1 binding intensity |
| --- | --- |
| ATGGCGGGCGCTGCAGTGGGCAGTTGAGTTTCCGGG | 506 |
| GGCACACTGCTGTTGCACCATAAGCTTCCTGGATGG | 511 |
| TCCGGAAGTGGCACTGATGGGCGCCAGCGGCGGGGG | 6520 |
| GGAAAGCGGAAGAAAAAAGCAAGATGGGACCCCAAG | 642 |
| CCACCTCCTCCGGACGCCGCCCGAAACTGAGCATGC | 591 |
| CCGACCCCAGCTTCCCGGGGTTGAGGCCCTGCCTCC | 462 |
| ATCAGGGGAAACGGCCAAGGTGGCGGGAGTCTCTTC | 390 |
| ATTGGTTTCTGTCGTTGACGAGGCATCCGGTCTATG | 2160 |
| GCTACGGGTTCCCCGGATGGAGCCGCTGTCCGGCCG | 581 |
| TGAGTCATTTCCTGGGTGGGGGCTACAAGACCAGGT | 6470 |
| CTTATCAACTACCAAGAGACATTTCCCCTTTGTACT | 558 |
| AGCTCTGCCAGGAAGTGAGAACGACAGGCCTCCCCT | 2100 |
| CAGCACACACCGTACGGGGCGACAGCTTCCGGGGGC | 1280 |
| CAGGACGCTGTCGCTGCAGCTTCTTCCGGCTAGCTG | 1610 |
| TGCAATCTTAGCCGCTGTGCTTCCGTCGCAGTGGGA | 702 |
| GGATCGGCCTGAGGTGTGTCTCATTTCCTGTAGGTA | 2130 |
| AGTGTAGTAATCACAGGCCCCGGAAACCTCCCCCTC | 392 |
| TTTTCTCTAAACTACATGAAAACAGGAAATGAGCCT | 2740 |
| AGAAACTACAAAACCCCATTTGAAATTCCGCCGTGC | 352 |
| GCGTTCGTGGGGCGGCAGCTGCGGAACTGCGCGATT | 401 |
| AGCTGAGGTCGAGGTGCAGCAGCAGGAAACGTGATA | 633 |
| CAGGACCCCTGTACTCCGGGTGAAGCGGAAGCGCAG | 667 |
| GGTGGCCCCAAATAGATATGCATACGGACGTTACAC | 387 |
| GAAACCGGAAGCGGCGGCTGTCCACGGTGCCGGCTG | 17600 |
| TGTGAGCACAGCTGGGGGCGGGGCAGGAAGTAGAAG | 1640 |
| GGAGGAACAACCCCTGGTTGTCCACGTTCCGGTCGT | 316 |
| CGCCGGATGCATAAAAGACTGGCTTCGGTGGCTCAG | 1410 |

| Sequence | ETS1 binding intensity |
| --- | --- |
| AGGTACAACACCAGACGGTAGGCCAGGAAATCGCAG | 407 |
| CAACTCACATCCTCTGGCAACAACGACTAATCCACT | 3570 |
| CAACTGACCGGACAGAACACAGCTACAAAACACGAG | 482 ± 52 |
| CCTGGAGCCTGTAGGCTTGGCTGCTTCCGCTAGCAG | 960 |
| GCCCTCGGCACGCACATTCTATCCGGCTAACCAGCT | 463 |
| GACTTCAGTGGATAACTCTGGAGAGCAGGAAATGGG | 649 |
| AAGCACTTGTAGTTGGCACCAGCTTTTCCTGTGCTC | 379 |
| CTCATGCACCGCCTGCACGTCCCAGGATGCGCTGCA | 417 |
| TCTGCAGCTTTCTCTCCCCAGCCACATCCGCCATTC | 775 |
| GAGGGGAGGAAGGCCTGGCTCGGGCTGGGCCCCAGC | 417 |
| CGAGGTGGAATCCGCAGCAGGAAGTGGGACGACAGA | 3040 |
| TTATTTCCTCTTTTTTTTTTTTTTTTTGGATTTGCT | 7430 |
| TCTGAGAATGCAGGATATGTGTGTGCTCTCTAGTCA | 635 |
| GATCACAAAATCCACTCGTTTCCTGTCCACAGCTAG | 5970 |
| GTCGCTGCTGTTTTGGGGTTGGCATCCTGTCCTCTG | 708 |
| GGTGTGACAACTACAAACAGCTTCCTGCCAGAGTCC | 2540 |
| CAGCAACATGCCCGAAGAGAATTCTTCCGGAGGCGG | 641 |
| GCTCAACTCACCCTCAGAACATGAGGATGTTATACA | 460 |
| ACCGCTGAGGCGGATTCCCACCGACTTCCTTTCCAT | 554 |
| GCCGGCGACATCCTCCCTTTGTAGGCGCTCCCTGCA | 2380 |
| GAAGTGGTGGCGGGCGCAGGCCAGGAAGGACAAGTG | 406 |
| ATCAGTCAACTTCCCCCACTCCCTCCCACGAAGAAA | 1180 |
| GGCGCGCGAGACCCTCAGACAGCGGAACTGGAGCCC | 366 |
| AACCTCCGACTTCCGGCCGCGCAGCGGAGGGCTGAG | 32100 |
| TCCTGTCTTCGTGGCTCCGGAAAGGCGTTTGGGATG | 413 |
| AGGGTGTGGAGGAAGTGGCTTACAAGCACTTTGTCT | 1400 |

— the supplement of paper PMC10681739
